Reference: PMC3501490, “An Investigation of Hierachical Protein Recruitment to the Inhibitory Platelet Receptor, G6B-b” (PLoS ONE, 2012)
These are yes or no findings as the source states them, for the method shown. For part of these data: In cells and extracts the contact can be indirect. Some binding calls cover weakened binding; strength is not graded here. Values belong to the binder of their own block, whether it stands above or below them.

Columns and labels:
[1] = target: T1, G6B-b pY237 phosphopeptide (biotinylated 60-mer, amino acids 182 to 241, ITSM phosphorylated) (human) (UniProt O95866); assay: pull-down; biotinylated G6B-b peptides on Streptactin beads incubated with pre-cleared NP-40 lysate of washed human platelets activated with 1 ug/ml CRP for 90 seconds, 4°C, 30 minutes; Western blotting; only the target purified
T1 sequence (peptide, phosphotyrosine at 237; biotin (end not stated)): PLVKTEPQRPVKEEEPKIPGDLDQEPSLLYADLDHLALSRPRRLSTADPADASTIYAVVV

[2] = target: T1, G6B-b pY237 phosphopeptide (biotinylated 60-mer, amino acids 182 to 241, ITSM phosphorylated) (human); assay: pull-down; direct pull down assay: peptide on Streptactin beads incubated with equimolar purified SH2 domains (100 pM [sic] each for the tandem SH2 domains), 250 µl PBS, 30 minutes, room temperature; bound and unbound fractions on Coomassie-stained gels; both purified
[3] = target: T2, G6B-b pY211 phosphopeptide (biotinylated 60-mer, amino acids 182 to 241, ITIM phosphorylated) (human) (UniProt O95866); assay: as above
T2 sequence (peptide, phosphotyrosine at 211; biotin (end not stated)): T1 sequence (peptide, phosphotyrosine at 237; biotin (end not stated))

binding [1]: binds
B1: PLCγ2 (endogenous, human platelets) (enzyme, UniProt P16885 1-1265)
chain: MSTTVNVDSLAEYEKSQIKRALELGTVMTVFSFRKSTPERRTVQVIMETRQVAWSKTADKIEGFLDIMEIKEIRPGKNSKDFERAKAVRQKEDCCFTILYGTQFVLSTLSLAADSKEDAVNWLSGLKILHQEAMNASTPTIIESWLRKQIYSVDQTRRNSISLRELKTILPLINFKVSSAKFLKDKFVEIGAHKDELSFEQFHLFYKKLMFEQQKSILDEFKKDSSVFILGNTDRPDASAVYLHDFQRFLIHEQQEHWAQDLNKVRERMTKFIDDTMRETAEPFLFVDEFLTYLFSRENSIWDEKYDAVDMQDMNNPLSHYWISSSHNTYLTGDQLRSESSPEAYIRCLRMGCRCIELDCWDGPDGKPVIYHGWTRTTKIKFDDVVQAIKDHAFVTSSFPVILSIEEHCSVEQQRHMAKAFKEVFGDLLLTKPTEASADQLPSPSQLREKIIIKHKKLGPRGDVDVNMEDKKDEHKQQGELYMWDSIDQKWTRHYCAIADAKLSFSDDIEQTMEEEVPQDIPPTELHFGEKWFHKKVEKRTSAEKLLQEYCMETGGKDGTFLVRESETFPNDYTLSFWRSGRVQHCRIRSTMEGGTLKYYLTDNLTFSSIYALIQHYRETHLRCAEFELRLTDPVPNPNPHESKPWYYDSLSRGEAEDMLMRIPRDGAFLIRKREGSDSYAITFRARGKVKHCRINRDGRHFVLGTSAYFESLVELVSYYEKHSLYRKMRLRYPVTPELLERYNMERDINSLYDVSRMYVDPSEINPSMPQRTVKALYDYKAKRSDELSFCRGALIHNVSKEPGGWWKGDYGTRIQQYFPSNYVEDISTADFEELEKQIIEDNPLGSLCRGILDLNTYNVVKAPQGKNQKSFVFILEPKQQGDPPVEFATDRVEELFEWFQSIREITWKIDTKENNMKYWEKNQSIAIELSDLVVYCKPTSKTKDNLENPDFREIRSFVETKADSIIRQKPVDLLKYNQKGLTRVYPKGQRVDSSNYDPFRLWLCGSQMVALNFQTADKYMQMNHALFSLNGRTGYVLQPESMRTEKYDPMPPESQRKILMTLTVKVLGARHLPKLGRSIACPFVEVEICGAEYDNNKFKTTVVNDNGLSPIWAPTQEKVTFEIYDPNLAFLRFVVYEEDMFSDPNFLAHATYPIKAVKSGFRSVPLKNGYSEDIELASLLVFCEMRPVLESEEELYSSCRQLRRRQEELNNQLFLYDTHQNLRNANRDALVKEFSVNENQLQLYQEKCNKRLREKRVSNSKFYS

binding [2]: no binding | binding [3]: no binding
B2: Csk SH2 domain (domain or fragment, UniProt P41240 82-171)
chain: WFHGKITREQAERLLYPPETGLFLVRESTNYPGDYTLCVSCDGKVEHYRIMYHASKLSIDEEVYFENLMQLVEHYTSDADGLCTRLIKPK
